# Reference: paper PMC4336329 (PLoS ONE, 2015)
# Among all 310,000 compounds or so, about 2,200 (0.71%) showed an effect of 50% or more. The effect is printed as a negative number. The list shows a part of the results.
# Target: human ether-à-go-go-related gene (hERG) potassium channel (human, UniProt Q12809)
# Assay: primary screen, population patch clamp on CHO cells stably expressing hERG
# Sequence of human ether-à-go-go-related gene (hERG) potassium channel (Q12809 whole entry, looked up): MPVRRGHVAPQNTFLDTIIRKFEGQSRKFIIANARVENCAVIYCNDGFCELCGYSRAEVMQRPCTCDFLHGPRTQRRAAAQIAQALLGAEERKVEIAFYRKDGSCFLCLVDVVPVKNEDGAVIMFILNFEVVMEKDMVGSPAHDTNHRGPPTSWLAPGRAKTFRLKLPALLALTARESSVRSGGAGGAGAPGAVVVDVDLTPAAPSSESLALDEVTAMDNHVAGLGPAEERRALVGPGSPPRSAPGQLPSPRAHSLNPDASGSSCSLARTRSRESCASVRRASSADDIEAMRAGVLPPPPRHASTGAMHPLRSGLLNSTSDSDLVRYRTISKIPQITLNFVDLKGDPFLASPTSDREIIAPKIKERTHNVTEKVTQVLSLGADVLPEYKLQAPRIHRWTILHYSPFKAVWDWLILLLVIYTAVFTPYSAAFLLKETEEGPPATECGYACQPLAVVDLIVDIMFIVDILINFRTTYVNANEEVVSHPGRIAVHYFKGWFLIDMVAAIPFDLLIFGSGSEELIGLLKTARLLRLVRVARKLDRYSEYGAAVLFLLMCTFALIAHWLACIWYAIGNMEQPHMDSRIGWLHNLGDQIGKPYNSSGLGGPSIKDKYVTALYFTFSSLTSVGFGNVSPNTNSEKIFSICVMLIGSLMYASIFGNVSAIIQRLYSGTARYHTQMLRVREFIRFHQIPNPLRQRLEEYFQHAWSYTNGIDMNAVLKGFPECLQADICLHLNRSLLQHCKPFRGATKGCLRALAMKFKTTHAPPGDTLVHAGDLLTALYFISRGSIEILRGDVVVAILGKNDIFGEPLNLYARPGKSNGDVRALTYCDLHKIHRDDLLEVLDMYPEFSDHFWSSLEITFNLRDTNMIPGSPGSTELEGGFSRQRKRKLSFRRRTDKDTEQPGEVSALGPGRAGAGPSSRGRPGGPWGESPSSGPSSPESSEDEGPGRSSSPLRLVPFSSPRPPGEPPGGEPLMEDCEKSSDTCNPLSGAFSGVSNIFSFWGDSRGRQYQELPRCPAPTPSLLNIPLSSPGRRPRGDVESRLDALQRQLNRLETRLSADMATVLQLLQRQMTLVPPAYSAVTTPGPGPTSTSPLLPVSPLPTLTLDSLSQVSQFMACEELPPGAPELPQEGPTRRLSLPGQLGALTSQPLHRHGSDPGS
row,Compound,"hERG current change (%, negative = inhibition) at 1uM [%]"
1,CCc1nnc(NC(=O)c2ccc(-c3ccc(C(C)=O)cc3)o2)s1,6.04
2,CCCCOC(=O)c1ccc(NC(=S)NC(=O)c2ccco2)cc1,17.5
3,CC(C)C[C@H](N)c1cn([C@@H](Cc2ccc(O)cc2)C(=O)N2CCNCC2)nn1.Cl,10.7
4,CC(NS(C)(=O)=O)C(c1cccs1)N1CCN(Cc2ccccc2)CC1 (centres unmarked),6.34
5,CCN(CC)c1ccc(CN2CCCCCC2)cc1,0.566
6,O=C(NCCCn1ccnc1)c1cc(Br)c(Br)s1,4.15
7,CCOC(=O)c1cc(=O)n2nc(-c3ccccc3F)nc2s1,14
8,Cc1ccc(-c2nc3ccccc3c(=O)n2-c2ccncc2)cc1,6.85
9,CCCCNC(=O)N(O)C1N(/N=C/c2ccccc2OC)C(=S)SC1(C)C (centres unmarked),4.28
10,Cc1nnc(SCC(=O)Nc2ccc(F)cc2)n(N)c1=O,-4.05
11,COC(=O)c1cccc(NC(=S)N2CCN(c3ccccc3F)CC2)c1,11.5
12,Cc1ccc(SCC(=O)NC(=O)NC(C)C)c(C)c1,9.87
13,C=CCN(CC=C)CCOc1cccc2ccccc12.O=C(O)C(=O)O,14.8
14,c1ccc(Cn2nnc3c(Nc4ccc5c(c4)OCO5)nc(C4CC4)nc32)cc1,-7.89
15,OC(CNCCc1c[nH]c2ccccc12)c1ccccc1 (centres unmarked),6.46
16,Cc1cccc(C)c1NC(=S)NCCc1ccc(O)c(O)c1,11.9
17,COc1ccc(NS(=O)(=O)c2cc(NC(=O)Cc3cccs3)ccc2C)cc1,15.6
18,CCC(C)C(NC(=O)c1ccc(Cl)cc1)C(=O)O (centres unmarked),15.8
19,COc1ccccc1NC(=O)c1[nH]c(C)c(C(C)=O)c1C,10.9
20,CC(=O)Nc1ccc(S(=O)(=O)N(C)CC(=O)N/N=C/c2cccc(O)c2)cc1,10
21,O=S(=O)(/C=C/c1ccccc1)N1CCN(c2ccccc2)CC1,2.24
22,COCCOC1CCN(C(=O)c2cc(COc3ccc(F)cc3F)on2)CC1,9.99
23,Cc1nc(NC(=O)c2oc3ccccc3c2C)sc1C(=O)N(C)C,2.34
24,O=C(COc1ccc(C(=O)c2ccccc2)cc1)NCc1ccc(F)cc1,-0.422
25,CCOc1ccccc1OCC(=O)Nc1nc2ccccc2[nH]1,33.6
26,C=CCOC(=O)C1=C(C)NC(C)=C(C(=O)OCC=C)C1c1ccco1,10.8
